Out of some 48,000 compounds screened, about 120 (0.25%) were called active. Not shown: some 4% with an inconclusive outcome. Calls come from the whole dose curve; as a rule, active = well fitted activation curve with a large enough effect; inconclusive = small, poorly fitted or top-dose-only effect, or another doubt; inactive = no such curve, though single readings can be large or run the other way. The list shows a part of the results.
Assay: Primary qHTS for Identification of Small Molecule Activators of Huntingtin-Antisense Promoter Activity; note: nearly all actives have a fitted effect of over 55% in size
Conditions: HEK293 HTT-AS promoter firefly luciferase reporter (activity 0% = vehicle and -100% = no light), 24 h; series mostly up to 57.5 µM; activity change, positive = activation: at the top concentration
Summary of the method: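 Firefly luciferase signal from promoter-reporter HEK293 cells was scaled between vehicle (0%) and zero RLU (-100%). Compounds were tested at final concentrations of up to 57.5 uM over 24 h at 37 degrees C. PTC124 at 50 uM final served as control inhibitor.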

Activity change, positive = activation, inactive:
Fc1ccc(Nc2nc(SCc3ccccc3F)nc3ccccc23)cc1 -31.8%
CCOC(=O)c1cc2c(=O)n3ccccc3nc2n(Cc2ccco2)c1=NC(=O)c1cccc(F)c1 -10.1%
COc1cc(NC(=O)CCCc2nnc3n(CC(C)C)c(=O)c4sccc4n23)cc(OC)c1 -9.14%
Cc1cc([N+](=O)[O-])ccc1NC(c1nnc(-c2ccccc2)o1)c1ccccc1F (configuration not stated) -7.7%
CC(=O)N1CCc2cc(Br)cc(S(=O)(=O)CCC(=O)N3CCN(c4ccccc4)CC3)c21 -9.2%
Cc1nc2cc(C(=O)NC3CCCCCC3)ccc2n1-c1ccc(Br)cc1 -21%
Cc1cc(-c2ccc(C)c(S(=O)(=O)NCCc3ccc(S(N)(=O)=O)cc3)c2)on1 -22.7%
CC(C)c1ccc(NS(=O)(=O)c2ccc3[nH]cc(C(=O)NCC4CCCO4)c(=O)c3c2)cc1 (configuration not stated) -3.84%
CCOc1ccc2nc(N3CCCC(C(=O)Nc4ccc(OC)c(Cl)c4)C3)sc2c1 (configuration not stated) -3.21%
CN(C)S(=O)(=O)c1ccc2c(c1)N(CC(=O)Nc1ccc(F)cc1)C(=O)CS2 7.19%
CCc1ccc(S(=O)(=O)Nc2ccc3[nH]c(=O)sc3c2)cc1 -23.4%
Cc1cccc(NC(=O)c2sc3nc4c(cc3c2N)CN(C(C)C)CC4)c1 -14.3%
Cc1cccc(N2CCN(C(=O)CN3C(=O)COc4ccc(S(=O)(=O)N5CCOCC5)cc43)CC2)c1C -8.77%
CCC1CCCCN1C(=O)CSc1nc(-c2ccc(OC)c(OC)c2)cc(C(F)(F)F)n1 (configuration not stated) -35.6%
CC1=C(C(=O)OC2CCCCCC2)C(c2cccc(F)c2F)CC(=O)N1 (configuration not stated) -32.2%
CCOc1ccc(OCC)c(NC(=O)CCc2nc3cccnc3n2Cc2cccs2)c1 -17.6%
COc1ccc(-c2nc(C)c(CCNC(=O)c3c(F)cccc3F)s2)cc1 9.46%
COc1cc(Cl)c(C)cc1NC(=O)CSc1nc2c(c(=O)[nH]1)CCCC2 -9.83%
CCCCNC(=O)CCCn1c(=O)c2ccccc2n(Cc2c(C)cc(C)cc2C)c1=O -15.4%
COC(=O)N1CCCc2cc(S(=O)(=O)N3CCN(c4ccccc4)CC3)ccc21 -24.1%
CN(C)c1ccc(CNC(=O)c2cnc3sc(N4CCCCCC4)nn3c2=O)cc1 -14.4%
Cc1cccc(Cc2c(C)nc3nc(SCc4ccccc4Cl)nn3c2C)c1 -9.72%
Cc1ccc(C)c(Cn2c(=O)n(CCC(=O)NCc3ccc4c(c3)OCO4)c(=O)c3sccc32)c1 -2.74%
COC(=O)c1ccccc1NC(=O)c1cc(C)nc2c1c(C)nn2-c1ccc(C)cc1 -7.21%
COc1cc(OC)c(NC(=O)n2ncc3cc(Cl)ccc32)cc1Cl -17.2%
COc1ccc(OC)c(NC(=O)CSC2=Nc3ccccc3C3=NC(CC(=O)NCc4ccc(F)cc4)C(=O)N23)c1 (configuration not stated) -13.9%
COc1ccc(C2CC(=O)c3c([nH]c(C(=O)OC4CCCCCC4)c3C)C2)cc1 (configuration not stated) -22%
COc1cccc(OCC(=O)NC2CC(=O)N(c3ccc4c(c3)OCCO4)C2)c1 (configuration not stated) -12.6%
Cc1ccc(Cl)cc1NC(=O)NCc1cccn1Cc1ccc(F)cc1 -23.6%
O=C(Nc1ccccc1O)c1cc(S(=O)(=O)N2CCCC2)ccc1Cl -38.6%
Cc1ccc2nc(-c3ccc(NC(=O)c4ccccc4S(C)(=O)=O)cc3)sc2c1 15.4%
COc1ccc2c(c1)c1c(c(=O)n(-c3ccc(OC)c(OC)c3)c(=O)n1CC(=O)N1CCCC1)n2C -13.4%
Cc1ccc(NC(=O)N2CCN(c3nnc(C)c4c(C)n(-c5ccc(Cl)cc5)nc34)CC2)c(C)c1 -7.5%
Cc1ccc(CNC(=O)CSc2ncc(S(=O)(=O)c3ccc(C)c(Cl)c3)c(=O)[nH]2)cc1 3.12%
O=C1CCCC(=O)C1C(=O)c1ccc(C(F)(F)F)cc1[N+](=O)[O-] -0.543%
C[C@@H]1CN(Cc2ccc(F)cc2)[C@@H](C)CN1C(=O)c1cc2c(C(=O)C(=O)N(C)C)cn(C)c2cc1Cl -31%
Cc1ccc(NC(=O)CSc2nc3ccc(NC(=O)COc4ccc(C)cc4)cc3s2)cc1 -7.29%
NC(=O)NS(=O)(=O)c1ccc(N)cc1 -5.23%
COc1ccccc1N1CCN(C(=O)CCn2nc(C)c(S(=O)(=O)N3CCCC3)c2C)CC1 -3.99%
O=C(Nc1nnc(C2CC(=O)N(c3ccc(Cl)cc3)C2)s1)c1ccco1 (configuration not stated) -3.68%
Cc1ccc(SCc2nc(-c3ccc(C(=O)Nc4cc(C)ccc4C)cc3)oc2C)cc1 -31.2%
O=C(Nc1ccc2[nH]c(=O)c(=O)[nH]c2c1)c1cccc(F)c1 -5.71%
Cc1ccccc1C1=CCN(c2ncc(NC(=O)c3ccc(Cl)cc3)cc2C(=O)O)CC1 -5.25%
Cc1nc2nc(SCC(=O)NCCc3ccc(Cl)cc3)nn2c(C)c1Cc1ccccc1Cl -18.6%
Cc1nc2c(-c3ccccc3)c(C)nn2c(C)c1CCC(=O)Nc1ccccc1F -37.1%
COc1ccc(C2CC(=O)Nc3c2c(=O)n(C)c2nc4ccccc4n32)cc1 (configuration not stated) -26.7%
COc1ccc(C(=O)c2cn(Cc3cccc(C)c3)c3cc4c(cc3c2=O)OCO4)cc1 -14.7%
COc1cc(Cl)c(C)cc1NC(=O)CSc1cc(-c2ccccc2)nc(C)n1 -4.13%
COc1ccc(CC(=O)NCCc2csc(-c3ccc(C(F)(F)F)cc3)n2)cc1 -5.96%
CCc1ccccc1NC(=O)Cn1c(=O)n(CC(=O)NCCc2ccccc2)c(=O)c2ccccc21 -7.69%
COC(=O)c1sc2cccc(F)c2c1S(=O)(=O)Nc1ccc(C)cc1Cl -8.55%
Cc1c(/C=C(\C#N)C(=O)Nc2cccc(Cl)c2)c2ccccc2n1Cc1ccccc1 -17.9%
Cc1ccc(NS(=O)(=O)c2ccc3c(c2)[C@H]2C=CC[C@H]2[C@@H](c2ccc(F)cc2)N3)cc1C -29.7%
Cn1c(=O)c2c(SCC(=O)NCc3ccc(F)cc3)nc(-c3ccccc3Cl)nc2n(C)c1=O 7.68%
CN1C(=O)Cc2cc(S(=O)(=O)CCC(=O)Nc3ccc(OC(F)(F)F)cc3)ccc21 -21.4%
Cc1ccc(NC(=O)CN2C(=O)c3ccccc3Sc3ccc(C(=O)N4CCOCC4)cc32)c(Cl)c1 -13.1%
CCN(C(=O)C1CCCN(c2ncnc3c2nc2n3CCCCC2)C1)c1cccc(C)c1 (configuration not stated) -35%
CCOc1ccc(OC(=O)c2c(-c3ccccc3Cl)noc2C)cc1 -25.4%
CCc1cc2c(cc3c(=O)n(CC(=O)NCc4cc(Br)ccc4OC)ncn32)s1 -1.41%
CCN(CC)S(=O)(=O)c1ccc2oc(C(=O)Nc3cc(C)ccc3OC)c(C)c2c1 19%
CC(=O)c1ccc(N2CCN(C(=O)CCn3cnc4onc(-c5ccc(F)cc5)c4c3=O)CC2)cc1 -10.4%
O=C1CC(c2ccc(F)cc2)c2c(c3ccccc3[nH]c2=O)O1 (configuration not stated) -8.41%
CCOc1ccccc1NC(=O)Nc1cc2c(cc1N1CCCCC1)n(CC)c(=O)n2CC -31.9%
CCOC(=O)c1ccc(NC(=O)CSc2nccn2-c2cc(C)cc(C)c2)cc1 -24.5%
CCOc1ccccc1CNCc1c(C(=O)O)n(Cc2ccc(F)cc2)c2cc(C)ccc12 -13.5%
CN1[C@H]2CC[C@H]1CC(OC(=O)c1c[nH]c3ccccc13)C2 (some centres not stated) -48.9%
CC(=O)N(CC(O)CN(C(C)=O)c1c(I)c(C(=O)NCC(O)CO)c(I)c(C(=O)NCC(O)CO)c1I)c1c(I)c(C(=O)NCC(O)CO)c(I)c(C(=O)NCC(O)CO)c1I (configuration not stated) -5.51%
CCn1cc(C(=O)NCCc2ccc(C)cc2)c(=O)c2cc(S(=O)(=O)N3CCc4ccccc4C3)ccc21 -16.1%
Cc1ccc(-c2noc(-c3cc(-c4ccc(F)cc4)n[nH]3)n2)cc1 -12.1%
O=C(Nc1c(-c2ccccc2)nc2ccccn12)c1ccccc1F -22.4%
Cc1cc(C)cc(NC(=O)CNS(=O)(=O)c2ccc3nc(C)sc3c2)c1 -25.8%
O=S(=O)(c1ccc(-c2csc(=Nc3ccc(OC(F)(F)Cl)cc3)n2CCCO)cc1)N1CCCC1 -63%
CC(C)CCNC(=O)c1ccc2c(c1)N(Cc1ccccc1F)C(=O)c1ccccc1S2(=O)=O -33%
Fc1cccc(Cl)c1CNCCSc1nnnn1-c1ccccc1 17.4%
COc1cccc(C(=O)N(Cc2ccco2)c2ccccn2)c1 -17.7%
O=C(CNC(=O)c1ccccc1F)OCc1cc(=O)n2nc(C3CCCCC3)sc2n1 -2.77%
CCCCNC(=O)CN1C(=O)COc2ccc(S(=O)(=O)N3CCCCCC3)cc21 -11.6%
CCOc1ccc(NC(=O)C2CCN(S(=O)(=O)c3c(C)noc3/C=C/c3cccs3)CC2)cc1 -32.1%
CCOc1ccc(-c2nnc(SCC(=O)c3ccccc3)n2-c2ccccc2)cc1 -14.5%
COC(=O)CNC(=O)N1CCN(S(=O)(=O)c2ccc3c(ccn3C)c2)CC1 -20.9%
COc1ccc(C(=O)Nc2ccc3oc(-c4ccc5ccccc5c4)nc3c2)cc1Br -21%
Cn1cccc1-c1cc2n(n1)CCC(=O)N2CCCC(=O)NCc1ccc(F)cc1 2.78%
Cc1cc(=O)[nH]c2nnc(SCc3ccc(C(F)(F)F)cc3)n12 4.18%
Cc1cccc(C)c1NC(=O)Cn1c(SCC(=O)NCc2ccccc2)nc2ccccc21 -10.8%
COc1ccc2cc(CNc3ccc(OC)c(OC)c3)c(=O)n(CC(=O)Nc3ccccc3F)c2c1 -10.1%
CCOC(=O)c1[nH]c(C)c(CCC(=O)Nc2cccc(SC)c2)c1C -27.3%
O=C(NC1(C(F)(F)F)N=C(c2ccccc2)N(C2CCCCC2)C1=O)c1ccc(F)cc1 (configuration not stated) -14.2%
Cc1cc(C)n(CCc2nc3c4ccccc4nc(SCc4ccc(Cl)cc4)n3n2)n1 -4.31%
Cn1ccc2cc(S(=O)(=O)N3CCCC(C(=O)NCc4ccc(F)cc4)C3)ccc21 (configuration not stated) -28.7%
C=CCSCC1Nc2cc(Cl)c(S(N)(=O)=O)cc2S(=O)(=O)N1 (configuration not stated) -10.6%
CCOc1ccccc1-c1noc(CCCC(=O)Nc2cccc(C(F)(F)F)c2)n1 -5.89%
O=C(CSc1nc(-c2ccc(F)cc2)nc2c1Cc1ccccc1O2)Nc1cccc(C(=O)O)c1 -6.97%

— PubChem BioAssay AID1508624 (National Center for Advancing Translational Sciences (NCATS), 2021)
